Common to all, as to test: Primary Screen for Target Class Profiling of Small Molecule Inhibitors of Methyltransferases
The target of experiment [1] is Glycine N-methyltransferase (Homo sapiens) (UniProt Q14749). The following applies: purified enzyme, MTase-Glo SAH luminescence; measured here: GNMT inhibition; at 40 µM; stronger effect = lower value. In outline:
(§1)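 Each enzyme was reacted with SAM and its substrate, with compounds tested once at 40 uM; SAH formed was read by MTase-Glo luminescence.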

The target of experiment [2] is Guanidinoacetate N-methyltransferase (Homo sapiens) (UniProt Q14353). The following applies: purified enzyme, MTase-Glo SAH luminescence; measured here: GAMT inhibition; at 40 µM; stronger effect = lower value. In outline: as §1
Experiment [3] deals with Histamine N-methyltransferase (Homo sapiens) (UniProt P50135). The following applies: purified enzyme, MTase-Glo SAH luminescence; measured here: HNMT inhibition; at 40 µM; stronger effect = lower value. In outline: as §1
The target of experiment [4] is Nicotinamide N-methyltransferase (Homo sapiens) (UniProt P40261). The following applies: purified enzyme, MTase-Glo SAH luminescence; measured here: NNMT inhibition; at 40 µM; stronger effect = lower value. A digest of the protocol:
as §1

Experiment [5] concerns the target Phenylethanolamine N-methyltransferase (Homo sapiens) (UniProt P11086). The following applies: purified enzyme, MTase-Glo SAH luminescence; measured here: PNMT inhibition; at 40 µM; stronger effect = lower value. In outline: as §1

Molecules are shown by their SMILES. The list shows a part of the results. Shown are side measurements of this screen, not its main read-out; they come without a call.
% is set by controls: 0 for no effect and ±100 for the full control effect.

In the case of `O=C1CCC(c2ccc(-n3ccnc3)cc2)=NN1`, the activity change, negative = inhibition is -11.6% in experiment [1]; 0.218% in experiment [2]; -2.48% in experiment [3]; -7.14% in experiment [4]; 3.52% in experiment [5].
With `COc1ccc(N2CCOC3CCN(Cc4ccc(C(C)C)cc4)CC3C2=O)cc1` (configuration not stated), the activity change, negative = inhibition is -10.6% in experiment [1]; -5.72% in experiment [2]; -7.65% in experiment [3]; -15.6% in experiment [4]; -6.36% in experiment [5].
With `COc1ccc(CN2C(=O)CSc3c(c4ccccc4n3C)C2C(=O)NCc2ccccc2)cc1` (configuration not stated), the activity change, negative = inhibition in experiment [1] was 12.8%; in experiment [2] it was 1.55%; in experiment [3], 5.91%; in experiment [4] it was 11.5%; in experiment [5], 10.4%.
As for `CC1(C)C2CC[C@]3(C)C(C(=O)C=C4[C@H]5C[C@@](C)(C(=O)O)CC[C@]5(C)CC[C@]43C)[C@@]2(C)CC[C@@H]1O` (some centres not stated), the activity change, negative = inhibition came to 3.77% in experiment [1] and 11.7% in experiment [3].
For `CC1CCCC(NC(=O)C2(C)Cn3c(cc4sccc43)C(=O)N2CCc2ccc(Cl)cc2)C1C` (configuration not stated), the activity change, negative = inhibition in experiment [1] was 0.278%; in experiment [2], 1.99%; in experiment [3], 5.67%; in experiment [4], 2.41%; in experiment [5], -0.632%.
For the compound `COC(=O)c1ncn2c1C(=O)N(c1ccc(C)c(C)c1)C(C)(C(=O)NC1CCCC1)C2` (configuration not stated), the activity change, negative = inhibition in experiment [1] is -5.25%; in experiment [2], -0.159%; in experiment [3], -5.26%; in experiment [4] it was -4.96%; in experiment [5] it was -2.42%.
With `CN1CCN(CCN2C(=O)c3ccc(-c4ccco4)n3CC2(C)C(=O)NC2CCCCCC2)CC1` (configuration not stated), the activity change, negative = inhibition in experiment [1] is 5.79%; in experiment [2] it was 0.734%; in experiment [3], 6.54%; in experiment [4] it was 6.37%; in experiment [5], -3.53%.
With `COC(=O)CC1(O)C(=O)Nc2ccccc21` (configuration not stated), the activity change, negative = inhibition in experiment [1] was 0.797%; in experiment [2], 1.43%; in experiment [3] it was 5.55%; in experiment [4], -9.11%; in experiment [5], -2.13%.
As for `Cc1cccc(NC(=O)CSc2nnc3n(CCc4ccccc4)c(=O)c4ccccc4n23)c1`, the activity change, negative = inhibition in experiment [1] is 2.58%; in experiment [2] it was 0%; in experiment [3], 7.62%; in experiment [4], 2.42%; in experiment [5], -0.466%.
As for `O=c1n(CC2CC2)c2cccnc2n1[C@H]1CCCN(S(=O)(=O)c2cccnc2)C1`, the activity change, negative = inhibition in experiment [1] was -3.47%; in experiment [2], -0.636%; in experiment [3] it was 0.598%; in experiment [4], -16.5%; in experiment [5], 0.661%.
For `CC(C)=C1C[C@@]2(C)C(=CC1=O)CC[C@@H](OC(=O)/C(C)=C/CO)[C@@H]2C`, the activity change, negative = inhibition in experiment [1] is -1.79%; in experiment [2], 2.66%; in experiment [3], 2.27%; in experiment [4] it was -12.3%; in experiment [5], -6%.
On the same counts, the results for `C[C@@H](N[C@H]1CCCC[C@@H]1NC(=O)c1ccc(Cl)cc1)c1cccc2ccccc12` are -10.4%, -16.7%, 0.565%, -32.6% and -6.67%.
With `CCNC(=O)N1CCN(CCCC(c2ccc(F)cc2)c2ccc(F)cc2)CC1`, the activity change, negative = inhibition is -1.93% in experiment [1]; 14.1% in experiment [2]; 4.24% in experiment [3]; -6.93% in experiment [4]; 3.88% in experiment [5].
For the compound `Cc1nc(N2CCC(NCCc3n[nH]c(=O)[nH]3)CC2)c2ccsc2n1`, the activity change, negative = inhibition was -3.26% in experiment [1]; -4.61% in experiment [2]; 0.215% in experiment [3]; -2.31% in experiment [4]; -1.89% in experiment [5].
Take `CC1CC[C@]2(C(=O)O)CC[C@]3(C(=O)O)C(=CCC4[C@@]5(C)CC[C@H](OC6OC(C)C(O)C(OC7OC(CO)C(O)C(O)C7O)C6O)C(C)(C)C5CC[C@]43C)C2C1C` (some centres not stated): the activity change, negative = inhibition in experiment [1] is -5.55%; in experiment [2] it was -15.8%; in experiment [3], 3.23%; in experiment [4], -25.6%; in experiment [5], -0.795%.
For `CCN(CC)CCNC(=O)CCc1nnc2n(Cc3ccccc3)c(=O)c3ccccc3n12`, the activity change, negative = inhibition was -5.36% in experiment [1]; 0% in experiment [2]; -25.1% in experiment [3]; 8.97% in experiment [4]; 3.56% in experiment [5].
As for `Fc1ccc(C(OCCCc2cnc[nH]2)c2ccc(F)cc2)cc1`, the activity change, negative = inhibition in experiment [1] was -2.57%; in experiment [2] it was 7.78%; in experiment [3], -74.9%; in experiment [4], -13.8%; in experiment [5], 6.28%.
`COCCCNC(=O)C1(C)Cn2nc(-c3ccccc3)cc2C(=O)N1c1cc(OC)cc(OC)c1` (configuration not stated): the activity change, negative = inhibition in experiment [1] came out at 5.53%; in experiment [2] it was 0%; in experiment [3], 7.45%; in experiment [4] it was 6.71%; in experiment [5], 0.808%.
Turning to `CCc1ccc(S(=O)(=O)c2nnn3c2nc(N2CCN(CC)CC2)c2cc(Cl)ccc23)cc1`, the activity change, negative = inhibition in experiment [1] was -14.5%; in experiment [2], 0.402%; in experiment [3], -22.1%; in experiment [4], -2.99%; in experiment [5], -10.1%.
Turning to `COc1cc2c(cc1OC)-c1cc(=Nc3c(C)cc(C)cc3C)n(C)c(=O)n1CC2`, the activity change, negative = inhibition was -15.6% in experiment [1]; 5.45% in experiment [2]; -4.24% in experiment [3]; -15% in experiment [4]; 0.202% in experiment [5].
On to `c1ccc(Cc2nnc([C@H]3CCN(CC4CCCCC4)C3)o2)cc1`, for which the activity change, negative = inhibition in experiment [1] is -3.87%; in experiment [2], -0.322%; in experiment [3] it was -3.77%; in experiment [4], -5.42%; in experiment [5], -30.1%.
`Cn1c(=O)c(-c2c(Cl)cccc2Cl)cc2cnc(Nc3ccc(N4CCOCC4)cc3)nc21`: the activity change, negative = inhibition was -1.7% in experiment [1]; 9.54% in experiment [2]; -2.77% in experiment [3]; -8.23% in experiment [4]; 0.829% in experiment [5].
With `Cn1cc(-c2ccc(F)c(C(F)(F)F)c2)nc1C1CCN(c2ncnc3[nH]ncc23)CC1`, the activity change, negative = inhibition in experiment [1] is 1.51%; in experiment [2], 15.5%; in experiment [3], 4.57%; in experiment [4] it was -71.8%; in experiment [5], -5.88%.
Regarding `COc1cc(C(=O)OCC2=CCC3C(C(=O)O)=COC(O[C@@H]4O[C@H](CO)[C@@H](O)[C@H](O)[C@H]4O)C23)ccc1O` (some centres not stated), the activity change, negative = inhibition in experiment [1] was 3.82%; in experiment [2], 1.4%; in experiment [3], 10.4%; in experiment [4], -8.77%; in experiment [5], 2.64%.
In the same order, the values of `CCn1nccc1C(=O)N1C[C@@H]2CCCN3CCC[C@@H]([C@H]23)[C@H]1CCCC(=O)NC` are 0.548%, 0.263%, -4.47%, -5.8% and 9.24%.
Take `OCCc1ccc(O[C@@H]2O[C@H](CO)[C@@H](O)[C@H](O)[C@H]2O)cc1`: the activity change, negative = inhibition in experiment [1] was found to be 15.3%; in experiment [2] it was 17.2%; in experiment [3], 12.4%; in experiment [4], 5.88%; in experiment [5], 4.65%.
In the same order, the values of `CCc1ccc(S(=O)(=O)c2nnn3c2nc(NCCc2c[nH]c4ccccc24)c2ccccc23)cc1` are 2.16%, 0.39%, 5.71%, 7.77% and 0.765%.
On the same counts, the results for `Cc1ccc(S(N)(=O)=O)cc1C(=O)N1CCCn2nc(C(C)O)cc2C1` (configuration not stated) are -6.9%, -5.64%, -3.34%, -10.9% and -6.85%.
As to `CCCCNc1ccc(C(=O)OCCN(CC)CC)cc1`, the activity change, negative = inhibition in experiment [1] was -1.2%; in experiment [2], 9.28%; in experiment [3], -14.5%; in experiment [4], -14.6%; in experiment [5] it was -8.35%.
For `CCCNC(=O)N[C@@H]1CCC[C@@H](C(=O)N(CC)CC)CC(=O)N(C)C1`, the activity change, negative = inhibition in experiment [1] was -9.03%; in experiment [2] it was -9.19%; in experiment [3], -17.5%; in experiment [4] it was -16.1%; in experiment [5] it was -7.32%.
`COC(=O)c1cc2n(n1)CC(C)(C(=O)NC1CCCC1)N(c1ccc(Cl)cc1C)C2=O` (configuration not stated): the activity change, negative = inhibition was 4.14% in experiment [1]; 0% in experiment [2]; 8.8% in experiment [3]; 10.8% in experiment [4]; 3.54% in experiment [5].
On the same counts, the results for `CCOC(=O)c1cc2n(n1)CC(C)(C(=O)NCc1ccc(C)cc1)N(C1CC1)C2=O` (configuration not stated) are 2.62%, 0%, 4.34%, 2.1% and 1.54%.
As for `Cc1cccc([S+](=O)([O-])N2CCC3(CC2)OCCN(CC2CC2)C3=O)c1`, the activity change, negative = inhibition was -8.67% in experiment [1]; -13.7% in experiment [2]; -6.19% in experiment [3]; -18.2% in experiment [4]; -12.4% in experiment [5].
In the same order, the values of `CCNC(=O)N1CCOc2ccc(CN3CCOCC3)cc2C1` are -3.98%, -0.132%, -0.527%, -2.4% and -20.5%.
In the case of `CCC/C=C/C=C/C1CC(O)C2(O)C(=O)OCC12` (configuration not stated), the activity change, negative = inhibition is 9.11% in experiment [1]; 4.12% in experiment [2]; 9.03% in experiment [3]; -10.1% in experiment [4]; -0.449% in experiment [5].
Regarding `COc1ccc(C(=O)N2CCCC(n3cc(-c4nc(C5CC5)no4)nn3)C2)cn1` (configuration not stated), the activity change, negative = inhibition in experiment [1] was 0.785%; in experiment [2], -1.8%; in experiment [3], 0.166%; in experiment [4] it was -3.79%; in experiment [5], 0.82%.
For the compound `O=C(CCc1nc2ccccc2[nH]1)N1CCC(c2nc(CCOCC3CC3)no2)C1` (configuration not stated), the activity change, negative = inhibition in experiment [1] is -7.15%; in experiment [2], -1.01%; in experiment [3] it was 0.827%; in experiment [4] it was -1.97%; in experiment [5], -0.588%.
For `CCOC(=O)c1cc2n(n1)CC(C)(C(=O)NC1CCCCC1)N(Cc1ccc(CC)cc1)C2=O` (configuration not stated), the activity change, negative = inhibition in experiment [1] is 0.903%; in experiment [2], 0.575%; in experiment [3] it was -0.324%; in experiment [4], -2.02%; in experiment [5], 4.9%.
